Reference: patent US7517874B2 (priority 2007, dated 2009)
Where two headings read alike, the source gives them in different places.

Target: human CB2 receptor (hCB2) (Homo sapiens, UniProt P34972)
Experiment: cell-based
Format: cell-based
Details: for +/− HCB2: agonist or inverse agonist at hCB2
[1] = groups >100 nM-10 μM and >10 μM, cAMP, CHO-K1 hCB2, read-out: EC50 HCB2

Sequence of human CB2 receptor (hCB2) (P34972 whole entry): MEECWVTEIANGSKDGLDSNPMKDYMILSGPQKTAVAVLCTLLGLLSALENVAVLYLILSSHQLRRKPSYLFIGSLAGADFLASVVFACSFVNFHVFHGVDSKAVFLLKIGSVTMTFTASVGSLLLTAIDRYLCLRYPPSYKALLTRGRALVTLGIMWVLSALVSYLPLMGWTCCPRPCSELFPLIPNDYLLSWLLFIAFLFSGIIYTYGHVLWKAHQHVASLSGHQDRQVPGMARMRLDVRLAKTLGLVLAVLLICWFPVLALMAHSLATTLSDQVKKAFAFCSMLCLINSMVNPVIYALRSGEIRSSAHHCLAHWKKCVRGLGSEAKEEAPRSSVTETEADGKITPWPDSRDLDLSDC

| Compound | +/− HCB2 | further results |
| --- | --- | --- |
| CNC(=O)[C@@H](NC(=O)c1nc(-c2ccc(F)c(Cl)c2)n2c1CN(C)CCC2)C(C)(C)C [Compound 372, (S)-3-(3-chloro-4-fluorophenyl)-N-(3,3-dimethyl-1-(methylamino)-1-oxobutan-2-yl)-8-methyl-6,7,8,9-tetrahydro-5H-imidazo[1,5-a][1,4]diazepine-1-carboxamide] | + |  |
| CNC(=O)[C@@H](NC(=O)c1nc(C2CCCCCC2)n2c1CN(C)CCC2)C(C)(C)C [Compound 498, (S)-3-cycloheptyl-N-(3,3-dimethyl-1-(methylamino)-1-oxobutan-2-yl)-8-methyl-6,7,8,9-tetrahydro-5H-imidazo[1,5-a][1,4]diazepine-1-carboxamide] | + |  |
| CC(C)C[C@H](NC(=O)c1nc(C2CCCCC2)n2c1CN(C)CCC2)C(N)=O [Compound 570, (S)-N-(1-amino-4-methyl-1-oxopentan-2-yl)-3-cyclohexyl-8-methyl-6,7,8,9-tetrahydro-5H-imidazo[1,5-a][1,4]diazepine-1-carboxamide] | + |  |
| Cc1nnc([C@@H](NC(=O)c2nc(-c3ccccc3)n3c2CN(C)CC3)C(C)(C)C)o1 [Compound 201, (S)-N-(2,2-dimethyl-1-(5-methyl-1,3,4-oxadiazol-2-yl)propyl)-7-methyl-3-phenyl-5,6,7,8-tetrahydroimidazo[1,5-a]pyrazine-1-carboxamide] | + |  |
| CC(CO)NC(=O)c1nc(-c2ccccc2)n2c1CN(C)CC2 (stereo not drawn) [Compound 231, N-(1-hydroxypropan-2-yl)-7-methyl-3-phenyl-5,6,7,8-tetrahydroimidazo[1,5-a]pyrazine-1-carboxamide] |  | EC50 [1]: > 10000 nM |
| CNC(=O)[C@@H](NC(=O)c1nc(-c2cccnc2)n2c1CN(C)CCC2)C(C)(C)C [Compound 348, (S)-N-(3,3-dimethyl-1-(methylamino)-1-oxobutan-2-yl)-8-methyl-3-(pyridin-3-yl)-6,7,8,9-tetrahydro-5H-imidazo[1,5-a][1,4]diazepine-1-carboxamide] | + |  |
| CNC(=O)[C@H](CC(C)(C)C)NC(=O)c1nc(-c2ccc(F)cc2)n2c1CN(C)CCC2 [Compound 547, (S)-N-(4,4-dimethyl-1-(methylamino)-1-oxopentan-2-yl)-3-(4-fluorophenyl)-8-methyl-6,7,8,9-tetrahydro-5H-imidazo[1,5-a][1,4]diazepine-1-carboxamide] | + |  |
| COC(=O)N1CCn2c(-c3ccccc3)nc(C(=O)N[C@H](C)C3CCCCC3)c2C1 [Compound 185, (R)-methyl 1-(1-cyclohexylethylcarbamoyl)-3-phenyl-5,6-dihydroimidazo[1,5-a]pyrazine-7(8H)-carboxylate] |  | EC50: > 10000 nM |
| CNC(=O)[C@H](C)NC(=O)c1nc(-c2ccccc2)n2c1CN(C)CC2 [Compound 78, (S)-7-methyl-N-(1-(methylamino)-1-oxopropan-2-yl)-3-phenyl-5,6,7,8-tetrahydroimidazo[1,5-a]pyrazine-1-carboxamide] |  | EC50 [1]: > 10000 nM |
| CNC(=O)[C@@H](NC(=O)c1nc(CCCOC)n2c1CN(C)CCC2)C(C)(C)C [Compound 489, (S)-N-(3,3-dimethyl-1-(methylamino)-1-oxobutan-2-yl)-3-(3-methoxypropyl)-8-methyl-6,7,8,9-tetrahydro-5H-imidazo[1,5-a][1,4]diazepine-1-carboxamide] | + |  |
| CCS(=O)(=O)N1CCCn2c(-c3ccccc3)nc(C(=O)N[C@H](C(=O)NC)C(C)(C)C)c2C1 [Compound 461, (S)-N-(3,3-dimethyl-1-(methylamino)-1-oxobutan-2-yl)-8-(ethylsulfonyl)-3-phenyl-6,7,8,9-tetrahydro-5H-imidazo[1,5-a][1,4]diazepine-1-carboxamide] |  | EC50: > 10000 nM |
| CNC(=O)[C@@H](NC(=O)c1nc(-c2cnn(C)c2)n2c1CN(C)CCC2)C(C)(C)C [Compound 447, (S)-N-(3,3-dimethyl-1-(methylamino)-1-oxobutan-2-yl)-8-methyl-3-(1-methyl-1H-pyrazol-4-yl)-6,7,8,9-tetrahydro-5H-imidazo[1,5-a][1,4]diazepine-1-carboxamide] | + |  |
| CC(C)CCNC(=O)c1nc(-c2ccc(Cl)cc2)n2c1CN(C(=O)OC(C)(C)C)CC2 [Compound 33, tert-butyl 3-(4-chlorophenyl)-1-(isopentylcarbamoyl)-5,6-dihydroimidazo[1,5-a]pyrazine-7(8H)-carboxylate] | − |  |
| CNC(=O)[C@@H](NC(=O)c1nc(-c2cccc(C(F)(F)F)c2)n2c1CN(C)CCC2)C(C)(C)C [Compound 438, (S)-N-(3,3-dimethyl-1-(methylamino)-1-oxobutan-2-yl)-8-methyl-3-(3-(trifluoromethyl)phenyl)-6,7,8,9-tetrahydro-5H-imidazo[1,5-a][1,4]diazepine-1-carboxamide] | + |  |
| CNC(=O)[C@@H](NC(=O)c1nc(-c2cc(Cl)ccc2OC)n2c1CN(C)CCC2)C(C)(C)C [Compound 327, (S)-3-(5-chloro-2-methoxyphenyl)-N-(3,3-dimethyl-1-(methylamino)-1-oxobutan-2-yl)-8-methyl-6,7,8,9-tetrahydro-5H-imidazo[1,5-a][1,4]diazepine-1-carboxamide] | + |  |
| CN1CCn2c(-c3ccccc3)nc(C(=O)CCCc3ccccc3)c2C1 [Compound 294, 1-(7-methyl-3-phenyl-5,6,7,8-tetrahydroimidazo[1,5-a]pyrazin-1-yl)-4-phenylbutan-1-one] | − |  |
| CNC(=O)[C@@H](NC(=O)c1nc(-c2ccc(N(C)C)cc2)n2c1CN(C)CCC2)C(C)(C)C [Compound 381, (S)-N-(3,3-dimethyl-1-(methylamino)-1-oxobutan-2-yl)-3-(4-(dimethylamino)phenyl)-8-methyl-6,7,8,9-tetrahydro-5H-imidazo[1,5-a][1,4]diazepine-1-carboxamide] |  | EC50: > 10000 nM |
| CNC(=O)[C@@H](NC(=O)c1nc(-c2ccccc2)n2c1CN(c1cnccn1)CC2)C(C)(C)C [Compound 301, (S)-N-(3,3-dimethyl-1-(methylamino)-1-oxobutan-2-yl)-3-phenyl-7-(pyrazin-2-yl)-5,6,7,8-tetrahydroimidazo[1,5-a]pyrazine-1-carboxamide] | + |  |
| CNC(=O)[C@@H](NC(=O)c1nc(CCC2CC2)n2c1CN(C)CCC2)C(C)(C)C [Compound 490, (S)-3-(2-cyclopropylethyl)-N-(3,3-dimethyl-1-(methylamino)-1-oxobutan-2-yl)-8-methyl-6,7,8,9-tetrahydro-5H-imidazo[1,5-a][1,4]diazepine-1-carboxamide] |  | EC50: > 10000 nM |
| CC(C)CN1CCn2c(-c3ccccc3)nc(C(=O)N[C@H](CO)C(C)(C)C)c2C1 [Compound 60, (S)-N-(1-hydroxy-3,3-dimethylbutan-2-yl)-7-isobutyl-3-phenyl-5,6,7,8-tetrahydroimidazo[1,5-a]pyrazine-1-carboxamide] |  | EC50: > 10000 nM |
| CNC(=O)[C@@H](NC(=O)c1nc(-c2ccccc2)n2c1CN(S(=O)(=O)c1ccc(C#N)cc1)CC2)C(C)(C)C [Compound 108, (S)-7-(4-cyanophenylsulfonyl)-N-(3,3-dimethyl-1-(methylamino)-1-oxobutan-2-yl)-3-phenyl-5,6,7,8-tetrahydroimidazo[1,5-a]pyrazine-1-carboxamide] |  | EC50: > 10000 nM |
| CN1CCCn2c(-c3ccc(F)c(F)c3)nc(C(=O)N[C@@H](CC(C)(C)C)C(N)=O)c2C1 [Compound 586, (S)-N-(1-amino-4,4-dimethyl-1-oxopentan-2-yl)-3-(3,4-difluorophenyl)-8-methyl-6,7,8,9-tetrahydro-5H-imidazo[1,5-a][1,4]diazepine-1-carboxamide] | + |  |
| CNC(=O)[C@H](CC(C)C)NC(=O)c1nc(-c2ccccc2)n2c1CN(C)CC2 [Compound 275, (S)-7-methyl-N-(4-methyl-1-(methylamino)-1-oxopentan-2-yl)-3-phenyl-5,6,7,8-tetrahydroimidazo[1,5-a]pyrazine-1-carboxamide] | + |  |
| CNC(=O)[C@@H](NC(=O)c1nc(-c2ccccc2)n2c1CN(CCO)CC2)C(C)(C)C [Compound 153, (S)-N-(3,3-dimethyl-1-(methylamino)-1-oxobutan-2-yl)-7-(2-hydroxyethyl)-3-phenyl-5,6,7,8-tetrahydroimidazo[1,5-a]pyrazine-1-carboxamide] | + |  |
| CNC(=O)[C@@H](NC(=O)c1nc(-c2ccccc2)n2c1CN(CC(C)C)CCC2)C(C)(C)C [Compound 320, (S)-N-(3,3-dimethyl-1-(methylamino)-1-oxobutan-2-yl)-8-isobutyl-3-phenyl-6,7,8,9-tetrahydro-5H-imidazo[1,5-a][1,4]diazepine-1-carboxamide] |  | EC50: > 10000 nM |
| CC(C)(C)OC(=O)N1CCCn2c(-c3ccccc3)nc(C(=O)N[C@H](C(=O)O)C(C)(C)C)c2C1 [Compound 515, (S)-2-(8-(tert-butoxycarbonyl)-3-phenyl-6,7,8,9-tetrahydro-5H-imidazo[1,5-a][1,4]diazepine-1-carboxamido)-3,3-dimethylbutanoic acid] |  | EC50 [1]: > 10000 nM |
| CNC(=O)[C@@H](NC(=O)c1nc(-c2ccccc2)n2c1CN(C)CC2)c1ccccc1 [Compound 207, (S)-7-methyl-N-(2-(methylamino)-2-oxo-1-phenylethyl)-3-phenyl-5,6,7,8-tetrahydroimidazo[1,5-a]pyrazine-1-carboxamide] | + |  |
| CN1CCCn2c(-c3ccc(Cl)c(F)c3)nc(C(=O)N[C@H](C(=O)N(C)C)C(C)(C)C)c2C1 [Compound 560, (S)-3-(4-chloro-3-fluorophenyl)-N-(1-(dimethylamino)-3,3-dimethyl-1-oxobutan-2-yl)-8-methyl-6,7,8,9-tetrahydro-5H-imidazo[1,5-a][1,4]diazepine-1-carboxamide] | + |  |
| CNC(=O)[C@@H](NC(=O)c1nc(C2=CCCCC2)n2c1CN(C)CC2)C(C)(C)C [Compound 256] | + |  |
| C=Cc1nc(C(=O)N[C@H](C(=O)NC)C(C)(C)C)c2n1CCN(C)C2 [Compound 266, (S)-N-(3,3-dimethyl-1-(methylamino)-1-oxobutan-2-yl)-7-methyl-3-vinyl-5,6,7,8-tetrahydroimidazo[1,5-a]pyrazine-1-carboxamide] | + |  |
